Test results reported in PubChem BioAssay AID485344 (National Center for Advancing Translational Sciences (NCATS), 2010).
Out of some 340,000 compounds screened, about 6,900 (2%) were called active. No stated cut-off is given here; in the data, active means inhibition above about 30%; inactive means below that, where a call was filed. The list shows a part of the results, in another mix than the full data. The source gives no active or inactive call for entries shown without one.
Further: 0% is about no effect.

These compounds were tested against D(2) dopamine receptor (Homo sapiens) (UniProt P14416) (assay: HTS Assay for Allosteric Antagonists of the Human D2 Dopamine Receptor: Primary Screen for Antagonists). Conditions: HEK293 TREx D2 cells, calcium flux, dopamine EC80; at 10 µM; stronger effect = higher value.
Chain of UniProt P14416 (P14416 whole entry, looked up): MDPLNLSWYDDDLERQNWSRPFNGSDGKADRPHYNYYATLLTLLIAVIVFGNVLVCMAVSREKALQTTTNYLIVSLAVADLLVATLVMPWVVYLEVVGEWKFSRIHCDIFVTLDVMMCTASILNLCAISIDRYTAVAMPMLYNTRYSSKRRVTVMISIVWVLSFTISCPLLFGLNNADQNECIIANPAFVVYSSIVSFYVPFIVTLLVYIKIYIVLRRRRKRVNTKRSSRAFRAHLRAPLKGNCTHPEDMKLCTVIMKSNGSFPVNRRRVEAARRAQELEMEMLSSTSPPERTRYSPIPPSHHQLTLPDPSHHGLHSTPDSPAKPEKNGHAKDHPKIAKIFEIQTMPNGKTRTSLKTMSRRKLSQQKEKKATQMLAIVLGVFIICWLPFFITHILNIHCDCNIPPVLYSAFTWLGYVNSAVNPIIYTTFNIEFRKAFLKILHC
Summary of the method: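 Calcium mobilization kinetics were recorded at 1 s intervals in tetracycline-induced HEK293 T-REx D2 cells, first for 180 s after compound addition and then 180 s after EC80 dopamine.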
For `CCCNC(=O)C1CCC(Cn2c(=O)c3sccc3n(Cc3cccc(OC)c3)c2=O)CC1` (centres undefined), the inhibition was -3.98%.
With `CCC(C(=O)N1CCN(c2cccc(C)c2C)CC1)n1nc(C)c2sc3ccccc3c2c1=O` (centres undefined) the inhibition was -13.9%.
In the case of `COc1ccccc1N1CCN(C(=O)c2coc(=O)c(Br)c2)CC1`, the inhibition is reported as active: 42.8%.
`CCN(Cc1ccccc1)C(=O)CCc1c(C)nc2c(c(C)nn2-c2ccc(C)c(C)c2)c1C` showed an inhibition of 0.653%.
`Cc1ccc(NC(=O)c2oc3ccc(S(=O)(=O)N4CCCCC4)cc3c2C)cc1Cl` gave an inhibition of -22%.
With `CC(C)(CO)Nc1nc(N2CCCC2)nc(N2CCCC2)n1` the inhibition was active: 46.9%.
In the case of `CCc1cccc(C)c1NC(=O)Cn1cc2c(n1)CCCC2`, the inhibition is reported as 5.86%.
Work on `Cn1c(=O)c2c(-c3ccc(Br)cc3)n(CCc3ccccc3)cc2n(C)c1=O` yielded an inhibition of 8.09%.
`CCN1C(C(=O)c2ccccc2)=C(OC(=O)c2ccc(OC)cc2)c2ccccc2S1(=O)=O` was tested, and the inhibition was 3.36%.
Work on `O=C(Nc1ccc2c(c1)OCO2)c1cc(-c2ccc(Br)cc2)on1` yielded an inhibition of -1.94%.
`CCCN1CCC(=O)N([C@H](CN=[N+]=[N-])Cc2ccccc2)CC1` was tested, and the inhibition was active: 37.5%.
For `Cc1ccccc1C(=O)Nc1nc2nc(-c3ccccc3)cc(=O)n2[nH]1`, the inhibition was 18.2%.
In the case of `Clc1cccc(-n2cc(-c3ccccc3)c3c(N4CCCCC4)ncnc32)c1`, the inhibition is reported as 19.9%.
`CCC(c1nnnn1Cc1ccc2c(c1)OCO2)N1CCN(c2ccccc2)CC1` (centres undefined) was tested, and the inhibition was active: 78.7%.
For `Cc1ccc(NC(=O)Nc2nnc(N(C)C3CCCCC3)s2)c(Cl)c1`, the inhibition was 6.98%.
With `Cc1cc(C)c(/C=C/c2onc(C)c2S(=O)(=O)N2CCC(C(=O)N(C)Cc3ccccc3)CC2)c(C)c1` the inhibition was -0.961%.
In the case of `Cc1ccc(-n2c(=O)c3c4c(sc3n(Cc3ccccc3C)c2=O)CCC4)cc1C`, the inhibition is reported as -5.38%.
With `Cc1ccccc1NC(=O)c1ccc(Cn2cc([N+](=O)[O-])cn2)o1` the inhibition was active: 32.1%.
`COc1ccc(S(=O)(=O)NCC(c2ccc(N(C)C)cc2)N2CCCC2)cc1` (centres undefined) was tested, and the inhibition was 11.5%.
Compound `CCOC(=O)c1c(NC(=O)COc2c(C)cc(Cl)cc2Cl)sc2c1CCCC2` has an inhibition of -9.69%.
For `COc1ccc(-c2noc(CC(=O)Nc3ccc(Br)cc3C)n2)cc1`, the inhibition was -2.15%.
`COc1cccc(CNC(=O)c2oc3c(c2C)-c2nn(Cc4cccc(Cl)c4)cc2CC3)c1` showed an inhibition of -6.45%.
For `Cc1ccc(NC(=O)CCNS(=O)(=O)c2cccc3nonc23)cc1`, the inhibition was active: 30.5%.
For `COc1ccc(C2c3c(oc4ccc(C)cc4c3=O)C(=O)N2CCCN2CCOCC2)cc1OC` (centres undefined), the inhibition was -8%.
In the case of `COc1ccc(NC(=O)C2=CC(c3ccc4c(c3)OCO4)=NS(=O)(=O)N2C)cc1`, the inhibition is reported as 2.4%.
Compound `CCC(C)(C)NC(=O)C1CCN(S(=O)(=O)c2c(C)noc2/C=C/c2ccc(C)cc2)CC1` has an inhibition of 11.6%.
In the case of `Fc1ccc(-n2cc(-c3ccccc3)c3c(NCCc4ccccc4)ncnc32)cc1`, the inhibition is reported as 13.1%.
`COc1ccc(C)cc1NC(=O)C1COc2ccccc2C1` (centres undefined) gave an inhibition of 1.49%.
Compound `CCc1ccc(NC(=O)Cn2c(=O)n(CCCCC(=O)NCCc3ccccc3)c(=O)c3ccccc32)cc1` has an inhibition of 7.66%.
`CCOc1ccc(OCC)c(NS(=O)(=O)c2c(C(=O)N3CCCCCC3)c(C)n(C)c2C)c1` gave an inhibition of 5.35%.
`O=C(CSc1nnc(-c2ccccc2)c(-c2ccccc2)n1)NC1CCCC1` was tested, and the inhibition was -2.22%.
In the case of `CCOc1ccc(C(=O)c2cn(CC(=O)Nc3ccc(F)cc3)c3cc4c(cc3c2=O)OCCO4)cc1`, the inhibition is reported as 1.27%.
`O=C(NCCCO)C(=O)NCC(c1ccc2c(c1)OCO2)N1CCOCC1` (centres undefined) gave an inhibition of 22.9%.
`Cc1ccc(OCCn2c(CCNC(=O)C3CCCCC3)nc3ccccc32)cc1` showed an inhibition of -8.5%.
For `Cc1ccc2c(=O)cc(C(=O)Nc3ccc(S(=O)(=O)N(C)Cc4ccccc4)cc3)oc2c1C`, the inhibition was -3.9%.
In the case of `c1csc(-c2nnc(NC3CCCCC3)c3ccccc23)c1`, the inhibition is reported as active: 43.2%.
With `COc1cccc(C(=O)NCc2cn3ccccc3n2)c1` the inhibition was 5.51%.
`Cc1ccc(-c2nnn(CC(=O)NCCc3ccc4c(c3)OCO4)n2)cc1` was tested, and the inhibition was active: 30.9%.
Work on `CCOc1cc(C2CC(=O)Nc3cc4c(cc32)OCCO4)ccc1O` (centres undefined) yielded an inhibition of 6.39%.
In the case of `COC(=O)C(C)Sc1nc2c(cnn2-c2ccc(F)cc2)c(=O)[nH]1` (centres undefined), the inhibition is reported as -19.5%.
Compound `CCOc1ccccc1NS(=O)(=O)c1ccc2c(c1)CC(C)N2C(=O)C1CCC1` (centres undefined) has an inhibition of 3.73%.
For `COc1ccc(NCc2cc3cc4c(cc3n(CC(=O)Nc3ccc(F)cc3)c2=O)OCCO4)cc1`, the inhibition was -1.5%.
Work on `COc1cccc(C(=O)N(Cc2cccnc2)c2nc3c(OC)ccc(C)c3s2)c1OC` yielded an inhibition of 2.17%.
Work on `O=C(CSc1nc2ccccc2nc1Cc1ccc(Cl)cc1)N1CCCc2ccccc21` yielded an inhibition of 3.96%.
Work on `COc1cccc(Cn2c(CNC(=O)CCc3ccccc3)nc3cccnc32)c1` yielded an inhibition of -7.75%.
In the case of `Cc1ccc(NC(=O)C(=O)NCCc2sc(-c3ccc(Cl)cc3)nc2C)cc1C`, the inhibition is reported as 16%.
`Cc1ccc(S(=O)(=O)NCCc2csc(-c3ccc(Cl)cc3)n2)cc1` gave an inhibition of 16%.
`Cc1c(Cl)cccc1NC(=O)CCS(=O)(=O)c1ccc2c(c1)oc(=O)n2C` gave an inhibition of 5.34%.
For `COc1cccc(CNC(=O)CCn2nc(C)c3c(C)n(-c4ccccc4)nc3c2=O)c1`, the inhibition was 3.55%.
For `Cc1nc2ccccc2n2c(-c3ccccc3)c3c(=O)n(C)c(=O)n(C)c3c12`, the inhibition was -15.1%.
`CCOC(=O)Cn1c(=O)n(C2CCCCC2)c2nc(-c3ccc(CC)cc3)nc(C(N)=O)c21` gave an inhibition of 0.716%.
Compound `Cc1cc(C)cc(NC(=O)Cn2c(=O)n(-c3cc(C)cc(C)c3)c(=O)c3oc4ccccc4c32)c1` has an inhibition of 13.8%.
Work on `Cn1nc(C(=O)NCc2cccc(Cl)c2)c2c1-c1ccccc1S(=O)(=O)C2` yielded an inhibition of 18.5%.
`C=CCC1c2cccc(C(=O)O)c2C(=O)N1c1cccc(C)c1` (centres undefined) was tested, and the inhibition was active: 32.2%.
`Cc1ccccc1N(C)S(=O)(=O)c1nnc(NC(=O)c2ccccc2F)s1` was tested, and the inhibition was 5.66%.
Work on `COc1cc(CN2CCc3nc(N4CCN(c5ncccn5)CC4)ncc3C2)cc(OC)c1OC` yielded an inhibition of 0.816%.
For `Cn1ncc2c(NCc3ccccc3Cl)nc(NCCO)nc21`, the inhibition was 14%.
With `COc1ccc2c(c1)c1c(c(=O)n(-c3ccccc3)c(=O)n1CC(=O)NCCC1=CCCCC1)n2C` the inhibition was -1.35%.
For `O=C(Nc1ccc(-n2nncc2-c2ccccc2)cc1)c1cccc(F)c1`, the inhibition was 20.8%.
`CCOc1ccc(CNC(=O)C2CCN(S(=O)(=O)c3cn(C)cn3)CC2)cc1` gave an inhibition of -8.03%.
Compound `O=C(CN1C(=O)CCn2nc(-c3ccccc3)cc21)NCc1ccc(F)cc1` has an inhibition of -7.8%.
In the case of `N=c1c(C(=O)NCC2CCCO2)cc2c(=O)n3ccccc3nc2n1CCCO` (centres undefined), the inhibition is reported as 9.69%.
`CCOc1cc(C(=O)NCCc2csc3nc(-c4ccccc4F)nn23)cc(OCC)c1OCC` gave an inhibition of -11%.
For `COc1ccc(F)cc1S(=O)(=O)NCC(c1ccco1)S(=O)(=O)c1ccc(F)cc1` (centres undefined), the inhibition was -12.4%.
In the case of `COc1ccc(Cn2c(C(=O)O)c(CNCCc3ccco3)c3ccc(C)cc32)cc1`, the inhibition is reported as 6.63%.
Work on `Cc1cc(C(F)F)n2nc(C(=O)Nc3cccc(Cl)c3C)nc2n1` yielded an inhibition of 8.16%.
In the case of `Cc1ccccc1OCC(=O)Nc1ccccc1C(=O)OCc1cc(=O)n2ccsc2n1`, the inhibition is reported as -1.56%.
In the case of `CC(C)(CNC(=O)c1ccc(-c2ccccc2Cl)o1)N1CCOCC1`, the inhibition is reported as active: 39.8%.
`Cc1nn(CCCC(=O)NCCc2ccc(Cl)cc2)c(=O)c2c1sc1ccccc12` was tested, and the inhibition was -4.73%.
`Cc1ccc(NC(=O)CCCn2c(=O)c3cccn3c3ccccc32)c(C)c1` gave an inhibition of 24.6%.
`CCOC(=O)c1cnc2c(ccc3ccccc32)c1Nc1cccc(C(F)(F)F)c1` was tested, and the inhibition was -7.75%.
For `CCCC(=O)Nc1ccc2oc(-c3cccnc3)nc2c1`, the inhibition was active: 31.9%.
For `Cc1ccc(C(=O)NCC(c2ccc3c(c2)OCO3)N2CCN(C)CC2)cc1C` (centres undefined), the inhibition was 8.19%.
With `CCc1noc(-c2ccc(NCc3ccccc3)c([N+](=O)[O-])c2)n1` the inhibition was 11.2%.
`COc1ccccc1N1CCN(C(=O)c2cn(C)c3ccc(S(=O)(=O)N(C)C4CCCCC4)cc3c2=O)CC1` showed an inhibition of 7.36%.
Work on `CCOc1ccc(NC(=O)c2cnn(-c3ccc(C)c(C)c3)c2C2CCN(C(=O)OC(C)(C)C)CC2)cc1` yielded an inhibition of 25.5%.
`CC1=C(C(=O)Nc2ccccc2)C(c2ccc(C(=O)O)cc2)n2ncnc2N1` (centres undefined) showed an inhibition of 1.09%.
Work on `CCOc1ccc(Nc2nc3c(S(=O)(=O)c4cccc(Cl)c4)nnn3c3ccsc23)cc1` yielded an inhibition of 5.4%.
`CCc1ccc(OCC(=O)N(Cc2ccco2)Cc2ccccc2Cl)cc1` gave an inhibition of -8.67%.
`CC(C)c1ccc(NC(=O)CSC2=Nc3ccccc3C3=NC(CC(=O)NC4CCCCC4)C(=O)N23)cc1` (centres undefined) showed an inhibition of 14.3%.
`CC(=O)N1N=C(c2cccnc2)OC1c1ccc(C(C)C)cc1` (centres undefined) was tested, and the inhibition was active: 55.4%.
Work on `COc1ccc(-c2nc3ccccc3n3c(-c4ccccc4)c4c(=O)n(C)c(=O)n(C)c4c23)cc1` yielded an inhibition of -5.92%.
In the case of `COc1ccc2c(Sc3ccc(Cl)cc3)c(C(=O)N3CCCCC3)[nH]c2c1`, the inhibition is reported as 26.3%.
`Cc1ccc(C(=O)NN2C(=O)c3ccc(S(=O)(=O)c4ccc(C(=O)O)cc4)cc3C2=O)cc1` was tested, and the inhibition was active: 62.6%.
In the case of `O=C(CSc1oc(-c2ccco2)nc1S(=O)(=O)c1ccc(Cl)cc1)Nc1ccc(F)cc1`, the inhibition is reported as 9.69%.
In the case of `OC1(c2ccc(F)cc2)CCN(Cc2cccnc2)CC1`, the inhibition is reported as active: 33.8%.
For `COc1ccc(-n2nc(C(=O)Nc3cccc(Cl)c3)c3c4ccccc4n(C)c3c2=O)cc1Cl`, the inhibition was -1.08%.
Work on `O=C(Nc1ccc(Br)cc1)c1cccc(S(=O)(=O)N2CCc3ccccc32)c1` yielded an inhibition of 18.6%.
`CC(C)(C)c1ccc(-c2nnc(-c3ccccc3NC(=O)c3ccc(F)cc3F)o2)cc1` was tested, and the inhibition was 6.38%.
In the case of `Cc1cc(NC(=S)N(CCN2CCCCC2)Cc2ccco2)ccc1Cl`, the inhibition is reported as active: 35.3%.
In the case of `Cc1cc(C)cc(N(CC(=O)N2CCCCCC2)S(C)(=O)=O)c1`, the inhibition is reported as active: 34.2%.
Work on `COc1ccc(N2CCN(CCCNC(=O)c3ccc4nc(N5CCCCC5)sc4c3)CC2)cc1` yielded an inhibition of 10.2%.
Compound `Cc1ccc(/C=C/c2onc(C)c2S(=O)(=O)N2CCC(C(=O)N(CCC(C)C)Cc3ccco3)CC2)cc1` has an inhibition of -21.7%.
In the case of `CCc1cccc(NC(=O)CCNS(=O)(=O)c2ccc3c(c2)CCN3C(C)=O)c1`, the inhibition is reported as -1.13%.
